Experimental data: the supplement of paper PMC4604168 (melanoma cell lines)
This is one part of the list. Single values are uncertain, as repeats are few or missing.

How the values were obtained:
Test in all cases: cell count relative to DMSO control; melanoma cells; higher = more viable cells
Details in all cases: library dose: standard library concentration; 72 h
G361 = system: G361
IPC-298 = system: IPC-298
IST-MEL1 = system: IST-MEL1
LB2518-MEL = system: LB2518-MEL
LOXIMVI = system: LOXIMVI
MEL-HO = system: MEL-HO
MZ2-MEL = system: MZ2-MEL
MeWo = system: MeWo
RPMI7951 = system: RPMI7951
RVH-421 = system: RVH-421
SkMel28 = system: SkMel28
SkMel2 = system: SkMel2
SkMel30 = system: SkMel30
SkMel5 = system: SkMel5
UACC257 = system: UACC257
UACC62 = system: UACC62
WM115 = system: WM115
WM1716 = system: WM1716
WM1745 = system: WM1745
WM3526 = system: WM3526
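Further: cells treated in 1,536-well plates, then fixed and DAPI-stained, with nuclei counted from automated high-throughput microscope images.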

Row | Structure (SMILES) | cell count (G361) | cell count (IPC-298) | cell count (IST-MEL1) | cell count (LB2518-MEL) | cell count (LOXIMVI) | cell count (MEL-HO) | cell count (MZ2-MEL) | cell count (MeWo) | cell count (RPMI7951) | cell count (RVH-421) | cell count (SkMel28) | cell count (SkMel2) | cell count (SkMel30) | cell count (SkMel5) | cell count (UACC257) | cell count (UACC62) | cell count (WM115) | cell count (WM1716) | cell count (WM1745) | cell count (WM3526)
1 | OCc1c[nH]c2ccccc12 [Indole-3-carbinol] + Cc1nc(Nc2ncc(C(=O)Nc3c(C)cccc3Cl)s2)cc(N2CCN(CCO)CC2)n1 [dasatanib] (first compound 4 µM, partner dose 0.02 µM) | 75.9% | 69.2% | 70.9% | 86.5% | 11.6% | 71% | 45.1% | 71.5% | 35.6% | 52.9% | 91.1% | 74.3% | 96.4% | 61.1% | 75.5% | 74.3% | 73.2% | 71% | 30.7% | 94.1%
2 | OCc1c[nH]c2ccccc12 [Indole-3-carbinol] + NC(=O)Nc1cc(-c2cccc(F)c2)sc1C(=O)N[C@H]1CCCNC1 [AZD7762] (first compound 4 µM, partner dose 0.1 µM) | 87.4% | 94.7% | 89.9% | 79.6% | 92.3% | 97.2% | 105% | 72.9% | 53.3% | 117% | 52.4% | 91.5% | 104% | 64.5% | 101% | 72% | 74% | 86.9% | 72.4% | 65.9%
3 | OCc1c[nH]c2ccccc12 [Indole-3-carbinol] + CC(C)(C)c1cnc(CSc2cnc(NC(=O)C3CCNCC3)s2)o1 [SNS-032] (first compound 4 µM, partner dose 0.05 µM) | 117% | 109% | 95.2% | 85.6% | 71.5% | 103% | 96.5% | 98.4% | 26.1% | 87% | 49.1% | 71.4% | 88.6% | 69.7% | 98.2% | 81.6% | 79.5% | 70.3% | 75.3% | 107%
4 | C#Cc1cccc(Nc2ncnc3cc(OCCOC)c(OCCOC)cc23)c1 [erlotinib] + CCc1ccc(CCOc2ccc(CC3SC(=O)NC3=O)cc2)nc1 [pioglitazone] (first compound 4 µM, partner dose 10 µM) | 81.9% | 76.2% | 86.1% | 73.6% | 88.7% | 95.1% | 68.6% | 94.1% | 76.4% | 75.8% | 50.8% | 94.1% | 68% | 63.1% | 102% | 81.3% | 86.3% | 80.5% | 58.9% | 72.3%
5 | COCC[n+]1c2c(n(Cc3cnccn3)c1C)C(=O)c1ccccc1C2=O + Cc1cc(N2CCOCC2)cc2[nH]c(-c3c(NC[C@@H](O)c4cccc(Cl)c4)cc[nH]c3=O)nc12 [BMS536924] (first compound 0.002 µM, partner dose 1 µM) | 69% | 52.7% | 36.5% | 32.8% | 67.7% | 95.6% | 27.6% | 29.4% | 41.7% | 76.5% | 43.9% | 25.2% | 57% | 21% | 30.4% | 69.8% | 55.6% | 59.1% | 59.8% | 26.7%
6 | O=C(CCCCCCC(=O)Nc1ccccc1)NO [vorinostat] + O=C(Nc1ccccc1)c1cc([N+](=O)[O-])ccc1Cl [GW9662] (first compound 0.4 µM, partner dose 10 µM) | 70.4% | 82.6% | 84.2% | 69.4% | 57.7% | 77.7% | 78% | 76.4% | 75% | 88.9% | 32.3% | 82.3% | 91.5% | 66.1% | 69.3% | 58.7% | 70.9% | 91.3% | 82.2% | 84.3%
7 | Cn1c(Nc2ccc(C(F)(F)F)cc2)nc2cc(Oc3ccnc(-c4ncc(C(F)(F)F)[nH]4)c3)ccc21 + C[C@@H]1CCN(C(=O)CC#N)C[C@@H]1N(C)c1ncnc2[nH]ccc12 [CP690550] (first compound 0.4 µM, partner dose 5 µM) | 28.8% | 61.6% | 87.1% | 41% | 65.9% | 89.6% | 103% | 82.3% | 69.2% | 47.8% | 54.6% | 54.3% | 85.2% | 48.4% | 77.8% | 41% | 36% | 73.5% | 67.8% | 46.1%
8 | COCC[n+]1c2c(n(Cc3cnccn3)c1C)C(=O)c1ccccc1C2=O + O=S(=O)(c1ccccc1)N(CC(F)(F)F)c1ccc(C(O)(C(F)(F)F)C(F)(F)F)cc1 [T0901317] (first compound 0.002 µM, partner dose 7 µM) | 70.3% | 48.2% | 55.6% | 24.5% | 93% | 88% | 39.1% | 68.3% | 28% | 108% | 46.7% | 34.4% | 75.4% | 42.3% | 27.8% | 63% | 65.7% | 50.3% | 75% | 69.7%
9 | COCC[n+]1c2c(n(Cc3cnccn3)c1C)C(=O)c1ccccc1C2=O + c1cc(-c2cnn3cc(-c4ccc(OCCN5CCCCC5)cc4)cnc23)ccn1 [Dorsomorphin] (first compound 0.002 µM, partner dose 2 µM) | 43.9% | 33.9% | 53.5% | 16.1% | 97.8% | 78.2% | 16.2% | 41.6% | 38.3% | 116% | 27.3% | 18.1% | 65.5% | 46.7% | 25.6% | 51.9% | 48% | 60.2% | 48.3% | 43.2%
10 | C#Cc1cccc(Nc2ncnc3cc(OCCOC)c(OCCOC)cc23)c1 [erlotinib] + Nc1cccc2c1CN(C1CCC(=O)NC1=O)C2=O [lenalidomide] (first compound 4 µM, partner dose 5 µM) | 81.8% | 74.6% | 94.8% | 83.1% | 97.4% | 81.4% | 83.8% | 83.7% | 115% | 83.6% | 75.5% | 104% | 87.9% | 79.9% | 79.4% | 50.2% | 90% | 91.6% | 61.8% | 81.5%
11 | O=C(CCCCCCC(=O)Nc1ccccc1)NO [vorinostat] + CN(NC(=O)CC(=O)NN(C)C(=S)c1ccccc1)C(=S)c1ccccc1 [STA4783] (first compound 0.4 µM, partner dose 0.03 µM) | 23.3% | 69.3% | 37.8% | 23% | 35.9% | 83.8% | 99% | 20.1% | 54.2% | 53.8% | 5.26% | 40.9% | 101% | 55.7% | 78.3% | 42.9% | 22.7% | 72.5% | 34.1% | 84.2%
12 | COCC[n+]1c2c(n(Cc3cnccn3)c1C)C(=O)c1ccccc1C2=O + Cc1ccc(NC(=O)c2cccc(N(C)C)c2)cc1NC(=O)c1ccc(O)cc1 [ZM336372] (first compound 0.002 µM, partner dose 10 µM) | 81.8% | 63.2% | 43.5% | 30.9% | 64.7% | 94.7% | 33.9% | 29.9% | 35.6% | 110% | 47.9% | 34.9% | 88.2% | 31.7% | 18.4% | 71.3% | 49.1% | 62.8% | 88.2% | 48.9%
13 | C#Cc1cccc(Nc2ncnc3cc(OCCOC)c(OCCOC)cc23)c1 [erlotinib] + CN(NC(=O)CC(=O)NN(C)C(=S)c1ccccc1)C(=S)c1ccccc1 [STA4783] (first compound 4 µM, partner dose 0.03 µM) | 34.1% | 56.3% | 30.6% | 24.5% | 54.9% | 67.3% | 78.4% | 21.3% | 48.8% | 63.5% | 21.5% | 61.7% | 68.8% | 48% | 96.5% | 45.9% | 19.7% | 60.3% | 26.6% | 64.8%
14 | Nc1cccc2c1CN(C1CCC(=O)NC1=O)C2=O (stereo not given) [lenalidomide] + O=C(Nc1cccc(Cl)c1)Nc1ncc(CCNc2ncnc3ccsc23)s1 [SNS314] (first compound 5 µM, partner dose 0.004 µM) | 77.1% | 106% | 58.6% | 73.6% | 70% | 78.9% | 101% | 59.5% | 67.4% | 93% | 75.5% | 79.2% | 93.7% | 75.9% | 67% | 63.6% | 38.8% | 59.4% | 63% | 77.9%
15 | COCC[n+]1c2c(n(Cc3cnccn3)c1C)C(=O)c1ccccc1C2=O + COc1cc(Nc2ncc(F)c(Nc3ccc4c(n3)NC(=O)C(C)(C)O4)n2)cc(OC)c1OC [Tamatinib] (first compound 0.002 µM, partner dose 2 µM) | 67% | 40.4% | 41.5% | 17.5% | 22.8% | 70.8% | 29.5% | 48.5% | 48.5% | 75.8% | 25.1% | 27.2% | 58.7% | 28.2% | 20.7% | 54.8% | 48.6% | 66.9% | 28.8% | 44.9%
16 | O=C(CCCCCCC(=O)Nc1ccccc1)NO [vorinostat] + COc1ccc2c(c1)CCC1C2CCC2(C)C(NCCCCCCN3C(=O)C=CC3=O)CCC12 [U73122] (first compound 0.4 µM, partner dose 2 µM) | 75.7% | 87.7% | 87.4% | 83.2% | 44.5% | 76.2% | 97.8% | 62.9% | 28.3% | 98.8% | 45% | 69.9% | 95.5% | 62.5% | 57.3% | 59.8% | 77.5% | 81.2% | 71.5% | 61.4%
